PubChem BioAssay AID488969 (Vanderbilt High Throughput Screening Facility, 2010)
Whole data set: some 110,000 compounds, median “z-score” near -0.1, cut for the highest 2% near 2. This is one part of the list. The source made the active and inactive calls.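 Rule for the calls: active = z-score in the third read window above 3 or below -3; inactive = the rest.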

molecular target: Metabotropic glutamate receptor 8 (Rattus norvegicus) (UniProt P70579); assay: mGluR8 Gi/Go-coupled signaling modulation – cell-based, rat, thallium flux, HTS, primary screen (AID 488969); details: HEK293 rat mGluR8, GIRK (G protein-gated inwardly rectifying potassium channel) thallium flux, FluoZin2; at 10 µM; stronger effect = higher value; submaximal glutamate (EC20) added with thallium
Chain of UniProt P70579 (P70579 whole entry, looked up): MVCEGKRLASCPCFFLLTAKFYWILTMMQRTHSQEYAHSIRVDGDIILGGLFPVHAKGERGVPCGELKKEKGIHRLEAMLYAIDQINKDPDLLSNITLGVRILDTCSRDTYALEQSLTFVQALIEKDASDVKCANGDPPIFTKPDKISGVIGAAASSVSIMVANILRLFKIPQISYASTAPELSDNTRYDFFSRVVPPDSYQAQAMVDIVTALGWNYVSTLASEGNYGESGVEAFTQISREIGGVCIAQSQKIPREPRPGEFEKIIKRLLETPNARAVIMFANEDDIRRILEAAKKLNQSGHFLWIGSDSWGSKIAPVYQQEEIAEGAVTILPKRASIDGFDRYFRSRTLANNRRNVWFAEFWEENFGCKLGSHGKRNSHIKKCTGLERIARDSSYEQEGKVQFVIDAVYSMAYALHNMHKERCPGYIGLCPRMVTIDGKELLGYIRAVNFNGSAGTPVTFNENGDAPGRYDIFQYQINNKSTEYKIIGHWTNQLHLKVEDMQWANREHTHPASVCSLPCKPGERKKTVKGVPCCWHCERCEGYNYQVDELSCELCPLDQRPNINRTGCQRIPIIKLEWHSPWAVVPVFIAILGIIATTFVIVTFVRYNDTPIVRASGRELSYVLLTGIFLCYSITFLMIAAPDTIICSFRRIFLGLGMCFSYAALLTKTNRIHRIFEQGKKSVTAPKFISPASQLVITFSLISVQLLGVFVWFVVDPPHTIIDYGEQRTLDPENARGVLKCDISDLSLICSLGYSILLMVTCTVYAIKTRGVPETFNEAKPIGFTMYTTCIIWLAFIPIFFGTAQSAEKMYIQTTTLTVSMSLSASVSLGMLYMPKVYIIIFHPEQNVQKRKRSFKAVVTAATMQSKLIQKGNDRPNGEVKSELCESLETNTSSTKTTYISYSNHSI

Row | SMILES | z-score
1 | Cc1ccc(C(NC(=O)/C=C\c2ccc3c(c2)OCO3)C(=O)Nc2ccc3c(c2)OCO3)cc1 (stereo unspecified) | -0.0804
2 | CCc1c(C)sc(NC(=O)c2cc(C)no2)c1C#N | -0.236
3 | Cc1ccc(-c2cc(C(=O)Nc3nn[nH]n3)c3ccccc3n2)c(C)c1 | 0.047
4 | CCCC1CCC(C(=O)Nn2cnc3ccccc3c2=O)CC1 (stereo unspecified) | -0.146
5 | CCC1CCC/C1=N\NC(=O)c1cc(C)[nH]n1 (stereo unspecified) | -0.0339
6 | COc1ccc(C(=O)OCC(=O)NCc2ccco2)cc1OC | -0.196
7 | Cc1c(Cl)c([N+](=O)[O-])nn1CC(=O)Nc1c(C)n(C)n(-c2ccccc2)c1=O | -0.0515
8 | Cc1ccc(-c2nc(C3CCN(S(C)(=O)=O)CC3)no2)cc1 | -0.0456
9 | COc1ccc(-c2c3c(=O)n(C)c(=O)n(C)c3cn2-c2ccccc2)cc1 | -2.16
10 | CCN1CCc2c(sc(NC(=O)Nc3ccc(Cl)c(Cl)c3)c2C(N)=O)C1 | -0.495
11 | CCN(CCCNC(=O)c1cn(CC)c2ccc(S(=O)(=O)N(C)C)cc2c1=O)c1cccc(C)c1 | -2.3
12 | COc1ccc(/C=C/C(=O)NC(=S)Nc2ccc(S(=O)(=O)Nc3ccc(OC)nn3)cc2)cc1 | -0.281
13 | COc1ccc(C(=O)Nc2cc(Cl)cc(Cl)c2)c(OC)n1 | -0.0898
14 | O=C(Nc1ccccc1)N1C2CCC1CC(O)(c1cccnc1)C2 (stereo unspecified) | -0.144
15 | CCN(CC)CC(C(=O)N(CC)CC)P(=O)(c1ccccc1)c1ccccc1 (stereo unspecified) | -0.228
16 | O=C(O)c1ccc2c(c1)C(=O)N(NC(=O)c1ccccc1)C2=O | -0.346
17 | CC(=O)N1CCN(c2ccc(NC(=O)c3cccc(OCc4ccccc4)c3)cc2)CC1 | 0.0391
18 | Cc1cc(C)c2c(n1)nn1c(-n3ccnc3)cc(C)nc21 | -0.277
19 | COc1ccc(C(=O)Oc2ccc(/C=N/NC(=O)c3ccccc3OC)cc2[N+](=O)[O-])cc1 | 0.0678

Row | SMILES | z-score
20 | S=C(Cc1cccnc1)N1CCOCC1 | -0.155
21 | CCCC(O)(CCC)C(=O)NN(C(=O)OC)c1ccccc1 | -0.128
22 | Cc1csc(C(=O)O)c1-n1cccc1 | -0.27
23 | CCc1nnc(NC(=O)C2CC(=O)N(c3ccc(C)cc3)C2)s1 (stereo unspecified) | 0.00239
24 | Cc1ccc(C(=O)N/C(=C/c2cccs2)C(=O)NCc2ccco2)cc1 | -0.165
25 | Cc1c(Br)cc(C(=O)OC2CCN(C)CC2)c(C)c1C | 1.02
26 | Cc1ccc(C)n1-c1ccc(N2CCOCC2)c(Br)c1 | -0.0836
27 | COc1ccc(OC)c(/C(O)=C/C(=O)C(=O)Nc2cc(C)ccc2OC)c1 | 0.612
28 | Cc1ccc2nc(SCC(=O)N3c4ccccc4CC3C)c(C)cc2c1 (stereo unspecified) | -0.0416
29 | O=C(Cc1ccccc1)NCC1COc2ccccc2O1 (stereo unspecified) | -0.147
30 | Cc1cc(C)n(-c2ncnc3c2oc2ccccc23)n1 | 0.121
31 | O=C(CC1CCCCC1)c1c(O)c2ccccc2oc1=O | -0.995
32 | c1ccc2c(c1)CNc1ccccc1C2 | -0.154
33 | CCN(CC)S(=O)(=O)c1cc(C(=O)OCC(=O)NC2CCCc3ccccc32)ccc1C (stereo unspecified) | -0.154
34 | Cc1ccccc1S(=O)(=O)Nc1ncnc2scc(-c3ccccc3)c12 | 0.207
35 | Cc1cc(Nc2cccc(F)c2)nc(-c2ccccc2O)n1 | 0.838
36 | Cc1ccc(C)c(OCC(=O)Nc2nonc2NC(=O)COc2cc(C)ccc2C)c1 | -0.394
37 | COC(=O)c1ccc(NC(CC(C)C)C(=O)OC)c([N+](=O)[O-])c1 (stereo unspecified) | 1.05
38 | O=C(NCCN1CCOCC1)C1CCC(=O)N1C1CCCCC1 (stereo unspecified) | 0.44

Row | SMILES | z-score
39 | CC(=O)Nc1cccc(-c2csc(Nc3cc(C)ccn3)n2)c1 | -0.78
40 | Cc1nc2ccccc2cc1C(=O)N/N=C/c1cccs1 | -0.0999
41 | CCOC(=O)c1cnc(-c2ccccc2)nc1N | 0.276
42 | Cc1ccc2nc(-c3ccc(NC(=O)CSc4ccccc4)cc3)[nH]c2c1 | -0.129
43 | CCN(C(=S)Nc1ccccc1F)C1CCCCC1 | 0.0708
44 | Cc1cccc(-c2noc(CCc3ccccc3)n2)c1 | 0.142
45 | Cc1ccc(S(=O)(=O)N2CCN(c3cc4c(cc3[N+](=O)[O-])n(C)c(=O)n4C)CC2)cc1 | -0.078
46 | O=C(CSC1=NS(=O)(=O)c2ccccc21)Nc1ccccc1 | -0.326
47 | COCCN1Cc2cccc(C(=O)NCc3cccnc3)c2C1=O | 0.092
48 | CCOC(=O)c1sc(NC(=O)CN(CC(C)C)CC(C)C)c(C(=O)OCC)c1C | -0.407
49 | CCN(CC)CC(O)COCCC12CC3CC(CC(C3)C1)C2 (stereo unspecified) | active: 3.04
50 | CSc1ccccc1NC(=O)c1cccnc1 | 0.499
51 | COc1ccc(CN2C(=O)c3ccccc3C2C(=O)NCc2cccnc2)c(OC)c1 (stereo unspecified) | 0.294
52 | Oc1ccc(-c2n[nH]c(=S)n2Cc2ccco2)cc1 | -0.11
53 | CCOC(=O)c1c(NC(=O)CSc2nncs2)sc(C)c1-c1ccccc1 | -0.117
54 | O=C(Cc1ccc(Nc2nc3ccc(Br)cc3[nH]2)cc1)NCCc1cccs1 | -0.267
55 | COC(=O)c1ccccc1NC(=O)CCc1ccccc1 | -0.362
56 | CCCc1nnc(SCC(=O)N2CCOCC2)n1C | 0.442
